Source: publication PMC4336329 (PLoS ONE, 2015)
Out of some 310,000 compounds screened, about 2,200 (0.71%) showed an effect of 50% or more. Effects have a minus sign here. Some of the results follow.

Each molecule was assayed against human ether-à-go-go-related gene (hERG) potassium channel (human, UniProt Q12809) (assay: primary screen, population patch clamp on CHO cells stably expressing hERG).
Sequence of human ether-à-go-go-related gene (hERG) potassium channel (Q12809 whole entry, looked up): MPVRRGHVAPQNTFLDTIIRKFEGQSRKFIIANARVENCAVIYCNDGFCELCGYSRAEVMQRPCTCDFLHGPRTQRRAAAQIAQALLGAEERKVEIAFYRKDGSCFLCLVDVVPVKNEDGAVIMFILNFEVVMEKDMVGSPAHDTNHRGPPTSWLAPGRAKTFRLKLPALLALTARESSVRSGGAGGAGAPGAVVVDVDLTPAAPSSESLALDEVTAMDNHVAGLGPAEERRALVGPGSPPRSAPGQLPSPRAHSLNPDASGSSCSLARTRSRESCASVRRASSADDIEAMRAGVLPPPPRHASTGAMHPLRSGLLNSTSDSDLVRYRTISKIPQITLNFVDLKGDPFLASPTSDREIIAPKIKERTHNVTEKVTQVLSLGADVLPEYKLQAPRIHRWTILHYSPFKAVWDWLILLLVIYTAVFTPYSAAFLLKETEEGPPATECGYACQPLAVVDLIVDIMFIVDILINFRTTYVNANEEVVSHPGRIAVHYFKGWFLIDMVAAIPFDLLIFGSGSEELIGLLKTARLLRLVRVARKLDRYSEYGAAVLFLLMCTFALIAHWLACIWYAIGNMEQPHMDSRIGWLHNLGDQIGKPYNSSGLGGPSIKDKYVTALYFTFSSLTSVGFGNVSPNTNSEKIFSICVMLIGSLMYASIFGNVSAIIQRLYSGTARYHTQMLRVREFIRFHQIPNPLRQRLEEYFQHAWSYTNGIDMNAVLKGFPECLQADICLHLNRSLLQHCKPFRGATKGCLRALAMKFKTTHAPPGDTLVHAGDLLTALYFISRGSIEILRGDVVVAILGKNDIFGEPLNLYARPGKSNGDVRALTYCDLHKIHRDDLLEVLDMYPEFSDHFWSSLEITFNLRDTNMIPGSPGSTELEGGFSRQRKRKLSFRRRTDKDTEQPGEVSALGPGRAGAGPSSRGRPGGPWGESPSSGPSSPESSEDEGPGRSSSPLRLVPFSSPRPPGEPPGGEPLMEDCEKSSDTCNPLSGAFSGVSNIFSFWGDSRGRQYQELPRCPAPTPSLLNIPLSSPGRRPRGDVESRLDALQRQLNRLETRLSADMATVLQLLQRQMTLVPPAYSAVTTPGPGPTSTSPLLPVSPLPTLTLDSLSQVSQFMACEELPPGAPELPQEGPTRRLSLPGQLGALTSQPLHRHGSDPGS

Compound	hERG current change (%, negative = inhibition) at 1uM
COc1cccc(-c2nnn(C/C(N)=N/O)n2)c1	9.43%
COc1ccc2c(CCNC(=O)c3ccco3)c[nH]c2c1	3.65%
CC(CCc1ccc(O)cc1)NC(c1ccccc1)c1ccc(Cl)cc1 (stereo not drawn)	20.5%
CCC1Oc2ccccc2N(CC(=O)N2CCOCC2)C1=O (stereo not drawn)	16.3%
CNC(=O)NC(=S)NC(=O)c1ccc(OC)cc1	-1.75%
COc1ccc(N(C(=O)CNC(=O)c2ccco2)C(C(=O)NCC2CCCO2)c2ccccc2)cc1OC (stereo not drawn)	13.9%
COc1ccc(-c2nc3ccccc3c(C(=O)Nc3ccc(S(=O)(=O)Nc4cc(C)on4)cc3)c2C)cc1	-4.11%
O=C(CSc1nnc(-c2ccccc2Br)o1)N1CCOCC1	15.1%
CC(=O)Nc1ccc(OCC(O)Cn2c3ccccc3c3ccccc32)c(C)c1 (stereo not drawn)	13.3%
O=C(O)c1cc([N+](=O)[O-])ccc1NCc1ccccn1	17%
CC1(C(=O)O)CCC(C(=O)Nc2ccc(OC(F)(F)Cl)cc2)C1(C)C (stereo not drawn)	17.7%
CCCN1C[C@H](CSC)C[C@@H]2c3cccc4[nH]cc(c34)C[C@H]21.CS(=O)(=O)O	-7.58%
CCn1c(SCC(N)=O)nnc1-c1ccco1	7.9%
Cc1nc(-c2ccc(S(=O)(=O)NCc3ccccn3)s2)cs1	8.08%
CCCCCn1c(SCc2ccncc2)nc2cc(C(=O)NCc3ccco3)ccc2c1=O	-6.94%
CN1C(=O)NC(=O)/C(=C\c2ccc([N+](=O)[O-])o2)C1=O	11.3%
CSc1ccccc1OCc1cc(C(=O)N2CCN(Cc3nccn3C)CC2)no1	-8.58%
CC(=O)NC(=S)Nc1ccc(S(=O)(=O)Nc2nc(C)cc(C)n2)cc1	18.6%
CCCc1nc2ccccc2c(=O)n1-c1ccccc1OC	1.56%

Compound	hERG current change (%, negative = inhibition) at 1uM
Cc1ccccc1N1C(S)=C(C#N)C(=O)NC1c1ccco1 (stereo not drawn)	-1%
CCOc1ccc(S(=O)(=O)N2CCC(C(=O)NCC3CCCO3)CC2)cc1Cl (stereo not drawn)	11.9%
CCc1ccc(CN(C)C(=O)C2CCC(=O)N(Cc3ccccn3)C2)cc1 (stereo not drawn)	3.02%
CC1(C)CC2CC(C)(CN2C(=O)COC(=O)c2cncc(Br)c2)C1 (stereo not drawn)	-0.246%
O=S(=O)(Nc1ccc(OC(F)F)cc1)c1ccc(-c2ccon2)s1	10.4%
O=C(N1CCN(Cc2ccc3c(c2)OCO3)CC1)C(Cl)(Cl)Cl	8.58%
CCCCC(CC)C(=O)Nc1ccccc1C#N (stereo not drawn)	6.71%
O=S(=O)(NCCC1=CCCCC1)c1ccc(F)cc1	9.44%
O=C(Nc1ccccc1N1CCOCC1)c1csc2c1CCCC2	9.91%
O=C(COC(=O)c1ccccc1Cl)Nc1ccc2[nH]c(=O)[nH]c2c1	6.39%
CCOC(=O)C1(CCOC)CCN(Cc2ccccc2-c2ccco2)CC1	1.38%
CSCCC1NC(=O)NC1=O (stereo not drawn)	1.76%
O=C1CCCC2=C1C(c1ccc3c(c1)OCO3)c1c([nH]n(-c3ccccc3)c1=O)N2 (stereo not drawn)	9.33%
O=C(NC1CCSC1=O)c1ccc(Oc2cccc(C(F)(F)F)c2)nc1 (stereo not drawn)	-4.49%
CCOc1cc(N2CCOCC2)c(OCC)cc1NC(=O)c1ccccc1	11.3%
CCCc1nc2nc(C)c(NS(=O)(=O)c3ccc([N+](=O)[O-])cc3)c(=O)n2[nH]1	9.6%
CCc1ccc(Nc2nnc(SCC(=O)Nc3cccc(S(=O)(=O)NC4=NCCCCC4)c3)s2)cc1	14.9%
COc1ccc(CCNC(=O)[C@@H](NC(=O)N2CC(=O)Nc3ccccc32)C(C)C)cc1OC	9.65%
Cc1ccc(-n2ncc3c(=O)n(-c4ccc(C)c(C)c4)c(-c4ccco4)nc32)cc1	-0.87%

Compound	hERG current change (%, negative = inhibition) at 1uM
COc1cccc(NC(=O)CN(C)C(=O)c2cc3c(s2)CCCCC3)c1	9.34%
COc1ccc(OCCCC(=O)Nc2ccc(N3CCCCC3)cc2)cc1.Cl	1.11%
Cc1cc(S(=O)(=O)N2CCCOC2CNC(=O)C(=O)NCc2cccs2)ccc1F (stereo not drawn)	13.7%
CCC(CC)COC(=O)C1=C(C)NC(=O)NC1c1ccc(N(C)C)cc1 (stereo not drawn)	21.5%
Cc1oc(-c2ccc(Cl)cc2)cc1C(=O)/C(C#N)=C/Nc1cccc(OC(F)(F)F)c1	7.4%
COc1ccc(CC(=O)N(CC2CCCO2)c2nc3ccccc3s2)cc1 (stereo not drawn)	6.23%
CCCOn1c(-n2nc(C)cc2C)nc2ccccc2c1=O	6.89%
CC1CCN(C(=O)CNS(=O)(=O)c2ccc(Br)s2)CC1	-0.447%
CCOC(=O)C1C(=O)CC(C)(O)C(C(=O)OCC)C1c1ccco1 (stereo not drawn)	-2.26%
CC(=O)Nc1cccc(Oc2cc(C#N)c(C#N)cc2N2CCOCC2)c1	6.97%
CCOc1ccccc1NS(=O)(=O)c1ccc(OC)c(OC)c1	10.6%
CCN(CC)S(=O)(=O)c1cccc(-c2nnc(SCC(N)=O)n2CCc2ccccc2)c1	-1.62%
COc1ccccc1-n1ccnc(SCC(=O)NC2CCCCC2)c1=O	7.12%
Cc1cccn2cc(CCNS(=O)(=O)c3ccc4c(c3)OCCO4)nc12	3.67%
COc1ccccc1Nc1nc2nonc2nc1N1CCCCC1C (stereo not drawn)	13.7%
CCOC(=O)N1CCN(S(=O)(=O)N(C)C)CC1	9.62%
COc1cccc(C2CC(c3ccc(C)cc3)n3ncnc3N2)c1 (stereo not drawn)	-6.28%
COc1ccc(CCNC(=O)CSc2n[nH]c(N)n2)cc1OC	18.1%
O=C1C2CCCN2C(=S)N1C1CCCCC1 (stereo not drawn)	6.41%
